Results taken from PubChem BioAssay AID1030 (National Center for Advancing Translational Sciences (NCATS), 2008).
Out of some 220,000 compounds screened, about 16,000 (7.3%) were called active. The inconclusive results got no clear call from the source; some entries with a clear call stand among them for comparison. Calls come from the whole dose curve; as a rule, active = well fitted inhibition curve with a large enough effect (not every such curve was filed as active); inconclusive = small, poorly fitted or top-dose-only effect, or another doubt; inactive = no such curve, though single readings can be large or run the other way. Potencies beside an inconclusive call are fits to weak or partial responses and may not hold up.

molecular target: Aldehyde dehydrogenase 1A1 (Homo sapiens) (UniProt P00352); assay: qHTS Assay for Inhibitors of Aldehyde Dehydrogenase 1 (ALDH1A1); conditions: Purified ALDH1A1, NADH fluorescence, propionaldehyde substrate; series mostly up to 75.3 µM;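 for activity, negative = inhibition: plate controls were no enzyme wells and a reference inhibitor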
Chain of UniProt P00352 (P00352 whole entry, looked up): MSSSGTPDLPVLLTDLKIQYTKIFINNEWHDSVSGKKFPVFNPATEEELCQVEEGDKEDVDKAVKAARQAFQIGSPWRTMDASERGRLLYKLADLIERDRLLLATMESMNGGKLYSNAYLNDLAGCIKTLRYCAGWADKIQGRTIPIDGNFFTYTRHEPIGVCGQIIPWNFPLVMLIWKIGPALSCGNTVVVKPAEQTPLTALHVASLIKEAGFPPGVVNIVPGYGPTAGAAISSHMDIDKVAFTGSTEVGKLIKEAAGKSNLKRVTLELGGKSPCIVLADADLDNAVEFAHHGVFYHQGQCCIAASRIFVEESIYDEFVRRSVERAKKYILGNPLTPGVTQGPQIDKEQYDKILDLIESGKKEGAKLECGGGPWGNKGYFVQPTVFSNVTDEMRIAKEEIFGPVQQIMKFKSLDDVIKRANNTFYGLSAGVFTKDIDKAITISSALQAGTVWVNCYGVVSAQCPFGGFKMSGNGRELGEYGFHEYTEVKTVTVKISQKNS
Potency is the fitted concentration of half-maximal effect; tags give direction and shape of the fitted curve.

Potency, active:
Cc1oc(-c2ccc3ccccc3c2)nc1CN(C)C(C)c1ccncn1 (configuration not stated) 15 µM, COc1ccc(CCNC(=O)CN2CCN(c3ccccc3Cl)CC2)cc1 3.16 µM, CCCCNC(=O)c1sc(=S)n(-c2ccccc2OC)c1N 8.91 µM, Cc1ccc2nc3ccc(N4CCCCCCC4)nn3c(=O)c2c1 10 µM, CCOC(=O)Cc1csc(NC(=O)CCS(=O)(=O)Cc2ccccc2)n1 20 µM, CN(C)c1ccc(CNc2ncc(Br)cc2Br)cc1 3.16 µM, CS(=O)(=O)N(Cc1ccc(C(=O)NN=C2CCCCCC2)cc1)c1ccccc1 15.8 µM, Cc1cc(N2CCC(C)CC2)nc(SCC(=O)c2ccccc2)n1 14.1 µM

Potency, inconclusive:
COc1cc([N+](=O)[O-])cc2cc(C(=O)NC(C)(C)C)c(=O)oc12 14.1 µM [inhibitor, partial curve], COc1ccc(-c2nn(-c3ccccc3)cc2/C=C(\CC(=O)O)c2nc3ccccc3s2)cc1OC 39.8 µM [inhibitor, single point], N/C(=N\OCc1ccccc1)c1nonc1N 25.1 µM [inhibitor, single point], Cc1ccc(-c2cc(C(=O)Nc3ccccn3)c3ccccc3n2)o1 12.6 µM [inhibitor, partial curve], Cc1ccc(CNC(=O)CS(=O)CC(=O)O)cc1 (configuration not stated) 25.1 µM [inhibitor, single point], Cn1c(=O)c(/C=C/c2ccccc2)nc2ccccc21 25.1 µM [inhibitor, partial curve], CC1CCN(S(=O)(=O)c2ccc3c(c2)c(=O)c(C(=O)NC2CCCC2)cn3C)CC1 28.2 µM [inhibitor, partial curve], Cc1sc(=NC(=O)c2ccco2)n(C)c1-c1ccc(F)cc1 39.8 µM [inhibitor, single point], Cc1ccc(C)c(NC(=O)COc2cccc3c2CCN(Cc2ccccc2C)C3=O)c1 39.8 µM [inhibitor, single point], CCC1C(=O)CC(c2ccco2)NC1c1ccco1 (configuration not stated) 39.8 µM [inhibitor, single point], O=C(c1cccc(S(=O)(=O)Nc2cccc(C(F)(F)F)c2)c1)N1CCCCC1 31.6 µM [inhibitor, single point], CSc1nc(C)c2c(n1)N(c1cccc(C)c1)CC2 39.8 µM [inhibitor, partial curve], CCCCN1C(=O)c2ccc(C(=O)Nc3cccnc3)cc2C1=O 2 µM [inhibitor, full curve], COc1ccc(CNC(=S)Nc2ccc(OC)cc2)cc1 39.8 µM [inhibitor, single point], Cc1ccc2c(c1)c1c(n2CC(O)CNC2CCCCC2)CCCC1 (configuration not stated) 35.5 µM [inhibitor, single point], Cc1cc(C)n2nc3nc(N4CCCCC4)nc(-c4ccco4)c3c2n1 25.1 µM [inhibitor, partial curve], CCCCn1c(=O)c(-c2ccccc2)c(O)c2ccccc21 39.8 µM [inhibitor, partial curve, poor fit], CCOc1ccccc1-n1c(N)c(C(N)=O)sc1=S 39.8 µM [inhibitor, single point], c1ccc(-c2nc(-n3nc4ccccc4n3)nc3ccccc23)cc1 31.6 µM [inhibitor, partial curve], COc1ccc(-c2ccnc3nc(N4CCOCC4)nn23)cc1 28.2 µM [inhibitor, partial curve], O=C1CC(c2ccccc2)CC(O)=C1C=NC1CCCCCC1 (configuration not stated) 25.1 µM [inhibitor, partial curve], COc1cccc(-c2nnc(N(C)C(=O)C3CCOC3)s2)c1 (configuration not stated) 44.7 µM [inhibitor, single point], COc1ccccc1-c1n[nH]c(=S)n1-c1ccccc1 22.4 µM [inhibitor, partial curve], O=c1c2c(n3nnnc3n1-c1ccccc1)-c1ccccc1CC21CCCC1 3.16 µM [inhibitor, full curve], COc1ccc(S(=O)(=O)NC(N)=NCCc2ccc(OC)c(OC)c2)cc1C 10 µM [inhibitor, partial curve], Cc1ccc(/C=N/NC(=O)c2cccc(S(=O)(=O)Nc3ccccc3Cl)c2)s1 39.8 µM [inhibitor, single point], Cc1cc2cc3c(cc2nc1SCC(=O)OC(C)C)OCCO3 39.8 µM [inhibitor, single point], Cc1c(C(=O)N/N=C/C(C)C)[nH]c2c([N+](=O)[O-])cccc12 14.1 µM [inhibitor, partial curve]

Potency, inactive:
CC(C)C(NS(=O)(=O)c1cccs1)C(=O)N1CCc2ccccc2C1 (configuration not stated), Cc1cc2c(c(SCC(=O)NCCc3ccccc3)n1)C(=O)OC2, CCOC(=O)c1sc(NC(=O)COC(=O)CNC(=O)C2CCCCC2)c(C(=O)OCC)c1C, COC(=O)CS(=O)(=O)c1ccsc1C(=O)Nc1ccc(F)cc1, COc1ccc(C(=O)CN2C3=NCCCN3c3ccccc32)cc1OC, COc1ccc(/C(=N\O)c2nccc3cc(OC)c(OC)cc23)cc1OC, Cc1c(NC(=O)Cn2ccc([N+](=O)[O-])n2)c(=O)n(-c2ccccc2)n1C, CCOC(=O)CN(C(=O)CSc1nnc(CNc2ccc(F)cc2)n1CC)c1ccc(F)cc1, CCc1cc(C(=O)c2ccc(OC)cc2)c(NC(=O)CN2CCN(C)CC2)s1

activity, negative = inhibition, inactive:
NNC(=O)CS(=O)(=O)Nc1ncccn1 15.7% [at 13.5 µM], CN(C)CCCN1c2ccccc2Sc2cnccc21 6.9% [at 13.5 µM]
